Test results reported in the supplement of paper PMC8728848.
This is one part of the list.

Legend:
Test in all cases: glycan array binding signal (z-score within array); higher = stronger binding
Details in all cases: glycan notation: IUPAC condensed, linker removed
[1] = molecular target: Gal(b1-4)GlcNAc(b1-3)Gal(b1-4)GlcNAc(b1-6)[Gal(b1-3)]GalNAc
Procedure, shortened: (§1)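 The binding signal is a Z-score computed within each array. Data were drawn from 3228 arrays in the Consortium for Functional Glycomics database, restricted to those with a known protein sequence. Scores were averaged over arrays of the same protein sequence at different concentrations or buffers, and over linkers, and negative values can be taken as non-binding.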

[2] = molecular target: Gal(b1-4)GlcNAc(b1-3)Gal(b1-4)[Fuc(a1-3)]GlcNAc(b1-3)Gal(b1-4)[Fuc(a1-3)]GlcNAc
Procedure, shortened: as §1

[3] = molecular target: Gal(b1-4)GlcNAc(b1-3)GalNAc
Procedure, shortened: as §1

[4] = molecular target: Gal(b1-4)GlcNAc(b1-3)[Fuc(a1-3)GlcNAc(b1-6)]Gal(b1-4)Glc
Procedure, shortened: as §1

[5] = molecular target: Gal(b1-4)GlcNAc(b1-3)[Gal(b1-4)GlcNAc(b1-6)]Gal(b1-4)GlcNAc
Procedure, shortened: as §1

[6] = molecular target: Gal(b1-4)GlcNAc(b1-3)[GlcNAc(b1-6)]Gal(b1-4)GlcNAc
Procedure, shortened: as §1

[7] = molecular target: Gal(b1-4)GlcNAc(b1-6)Gal(b1-4)GlcNAc
Procedure, shortened: as §1

[8] = molecular target: Gal(b1-4)GlcNAc(b1-6)GalNAc
Procedure, shortened: as §1

[9] = molecular target: Gal(b1-4)GlcNAc(b1-6)[Gal(b1-3)]GalNAc
Procedure, shortened: as §1

[10] = molecular target: Gal(b1-4)GlcNAc(b1-6)[Gal(b1-4)GlcNAc(b1-3)]GalNAc
Procedure, shortened: as §1

Gal(b1-4)GlcNAc6P = molecular target: Gal(b1-4)GlcNAc6P
Procedure, shortened: as §1

Gal(b1-6)Gal = molecular target: Gal(b1-6)Gal
Procedure, shortened: as §1

Gal3S(b1-3)GalNAc = molecular target: Gal3S(b1-3)GalNAc
Procedure, shortened: as §1

Gal3S(b1-3)GlcNAc = molecular target: Gal3S(b1-3)GlcNAc
Procedure, shortened: as §1

[11] = molecular target: Gal3S(b1-3)[Fuc(a1-4)]GlcNAc
Procedure, shortened: as §1

Gal3S(b1-4)Glc = molecular target: Gal3S(b1-4)Glc
Procedure, shortened: as §1

Gal3S(b1-4)Glc6S = molecular target: Gal3S(b1-4)Glc6S
Procedure, shortened: as §1

Gal3S(b1-4)GlcNAc = molecular target: Gal3S(b1-4)GlcNAc
Procedure, shortened: as §1

[12] = molecular target: Gal3S(b1-4)[Fuc(a1-3)]Glc6S
Procedure, shortened: as §1

[13] = molecular target: Gal3S(b1-4)[Fuc(a1-3)]GlcNAc
Procedure, shortened: as §1

[14] = molecular target: Gal3S(b1-4)[Fuc(a1-3)]GlcNAc6S
Procedure, shortened: as §1

Gal3S4S(b1-4)GlcNAc = molecular target: Gal3S4S(b1-4)GlcNAc
Procedure, shortened: as §1

Gal3S6S(b1-4)GlcNAc = molecular target: Gal3S6S(b1-4)GlcNAc
Procedure, shortened: as §1

Gal3S6S(b1-4)GlcNAc6S = molecular target: Gal3S6S(b1-4)GlcNAc6S
Procedure, shortened: as §1

Gal4S(b1-4)GlcNAc = molecular target: Gal4S(b1-4)GlcNAc
Procedure, shortened: as §1

Gal4S6S(b1-4)GlcNAc = molecular target: Gal4S6S(b1-4)GlcNAc
Procedure, shortened: as §1

Gal6P(b1-4)GlcNAc = molecular target: Gal6P(b1-4)GlcNAc
Procedure, shortened: as §1

Gal6S(b1-3)GlcNAc = molecular target: Gal6S(b1-3)GlcNAc
Procedure, shortened: as §1

Gal6S(b1-3)GlcNAc6S = molecular target: Gal6S(b1-3)GlcNAc6S
Procedure, shortened: as §1

Gal6S(b1-4)Glc = molecular target: Gal6S(b1-4)Glc
Procedure, shortened: as §1

Gal6S(b1-4)Glc6S = molecular target: Gal6S(b1-4)Glc6S
Procedure, shortened: as §1

Gal6S(b1-4)GlcNAc = molecular target: Gal6S(b1-4)GlcNAc
Procedure, shortened: as §1

Gal6S(b1-4)GlcNAc6S = molecular target: Gal6S(b1-4)GlcNAc6S
Procedure, shortened: as §1

GalNAc(a1-3)Gal = molecular target: GalNAc(a1-3)Gal
Procedure, shortened: as §1

GalNAc(a1-3)GalNAc = molecular target: GalNAc(a1-3)GalNAc
Procedure, shortened: as §1

[15] = molecular target: GalNAc(a1-3)GalNAc(b1-3)Gal(a1-4)Gal(b1-4)Glc
Procedure, shortened: as §1

[16] = molecular target: GalNAc(a1-3)GalNAc(b1-3)Gal(a1-4)Gal(b1-4)GlcNAc
Procedure, shortened: as §1

GalNAc(b1-3)Gal = molecular target: GalNAc(b1-3)Gal
Procedure, shortened: as §1

[17] = molecular target: GalNAc(b1-3)Gal(a1-4)Gal(b1-4)GlcNAc
Procedure, shortened: as §1

[18] = molecular target: GalNAc(b1-3)Gal(a1-4)Gal(b1-4)GlcNAc(b1-3)Gal(b1-4)Glc
Procedure, shortened: as §1

[19] = molecular target: GalNAc(b1-3)Gal(a1-6)Gal(b1-4)Glc
Procedure, shortened: as §1

GalNAc(b1-3)GalNAc = molecular target: GalNAc(b1-3)GalNAc
Procedure, shortened: as §1

GalNAc(b1-3)GlcNAc = molecular target: GalNAc(b1-3)GlcNAc
Procedure, shortened: as §1

GalNAc(b1-4)Gal(b1-4)Glc = molecular target: GalNAc(b1-4)Gal(b1-4)Glc
Procedure, shortened: as §1

GalNAc(b1-4)GlcNAc = molecular target: GalNAc(b1-4)GlcNAc
Procedure, shortened: as §1

B1: LngA (Escherichia coli) (protein)
chain: MLSVYNRTQKFKAEARKKIAKYHELRKQRGMSLLEVIIVLGIIGTIAAGVVILAQRAFDSRAVTDLVTNTNTVRVRMKDAYQRDGKYPDFVDPLSLTANTIKTDTSGIPAAQLVQLGKITPDEVRNNISGDFIAIGGALTSNGAQVKKGFAIELNGLSQEQCRSILGQVGNNWEYVAIGTSASGSYAMTATGVDMSVAASTTVLRSLGNNGQTTLTADKILSTCTAQVNSITLGSR
- glycan array binding signal (z-score) [1]: 0.525
- glycan array binding signal (z-score) [2]: -0.337
- glycan array binding signal (z-score) [3]: -0.483
- glycan array binding signal (z-score) [4]: -0.534
- glycan array binding signal (z-score) [5]: -0.205
- glycan array binding signal (z-score) [6]: -0.507
- glycan array binding signal (z-score) [7]: -0.492
- glycan array binding signal (z-score) [8]: 0.491
- glycan array binding signal (z-score) [9]: -0.287
- glycan array binding signal (z-score) [10]: -0.313
- glycan array binding signal (z-score) (Gal(b1-4)GlcNAc6P): 4.74
- glycan array binding signal (z-score) (Gal(b1-6)Gal): 0.393
- glycan array binding signal (z-score) (Gal3S(b1-3)GalNAc): 0.693
- glycan array binding signal (z-score) (Gal3S(b1-3)GlcNAc): -0.1
- glycan array binding signal (z-score) [11]: -0.002
- glycan array binding signal (z-score) (Gal3S(b1-4)Glc): 4.16
- glycan array binding signal (z-score) (Gal3S(b1-4)Glc6S): 2.3
- glycan array binding signal (z-score) (Gal3S(b1-4)GlcNAc): 0.599
- glycan array binding signal (z-score) [12]: 0.739
- glycan array binding signal (z-score) [13]: -0.481
- glycan array binding signal (z-score) [14]: 2.64
- glycan array binding signal (z-score) (Gal3S4S(b1-4)GlcNAc): 0.144
- glycan array binding signal (z-score) (Gal3S6S(b1-4)GlcNAc): 1.61
- glycan array binding signal (z-score) (Gal3S6S(b1-4)GlcNAc6S): 2.24
- glycan array binding signal (z-score) (Gal4S(b1-4)GlcNAc): -0.484
- glycan array binding signal (z-score) (Gal4S6S(b1-4)GlcNAc): -0.132
- glycan array binding signal (z-score) (Gal6P(b1-4)GlcNAc): 0.197
- glycan array binding signal (z-score) (Gal6S(b1-3)GlcNAc): -0.378
- glycan array binding signal (z-score) (Gal6S(b1-3)GlcNAc6S): 0.619
- glycan array binding signal (z-score) (Gal6S(b1-4)Glc): 0.168
- glycan array binding signal (z-score) (Gal6S(b1-4)Glc6S): 1.66
- glycan array binding signal (z-score) (Gal6S(b1-4)GlcNAc): -0.359
- glycan array binding signal (z-score) (Gal6S(b1-4)GlcNAc6S): 0.498
- glycan array binding signal (z-score) (GalNAc(a1-3)Gal): -0.3
- glycan array binding signal (z-score) (GalNAc(a1-3)GalNAc): -0.088
- glycan array binding signal (z-score) [15]: -0.513
- glycan array binding signal (z-score) [16]: -0.449
- glycan array binding signal (z-score) (GalNAc(b1-3)Gal): 0.532
- glycan array binding signal (z-score) [17]: -0.426
- glycan array binding signal (z-score) [18]: -0.43
- glycan array binding signal (z-score) [19]: -0.488
- glycan array binding signal (z-score) (GalNAc(b1-3)GalNAc): -0.272
- glycan array binding signal (z-score) (GalNAc(b1-3)GlcNAc): -0.469
- glycan array binding signal (z-score) (GalNAc(b1-4)Gal(b1-4)Glc): 0.945
- glycan array binding signal (z-score) (GalNAc(b1-4)GlcNAc): -0.331
